In patent publication US11999737B2, “Kinase inhibitors and related methods of use” (Duke University, priority 2014, dated 2024):

Experiments:
[1] = biological target: PIM1 (Homo sapiens, UniProt P11309); test: 33P-ATP filter-binding kinase assay
[2] = test system: LC20, Par-4, MYPT1 phosphorylation; design: species or system rat
[3] = test system: rabbit ileum smooth muscle
[4] = biological target: smMLCK (Homo sapiens, UniProt Q15746); test: 33P-ATP filter-binding kinase assay
[5] = test system: intact RTA strips; test: KCl and Ang II-dependent contraction of isolated RTA; design: species or system rat; details: HS-38 50 μM, n=1
Method: (§1) A, intact RTA strips were stimulated to contract with exposure to high-extracellular K+ solution (KCl) or Ang II (10 μM) in normal HEPES extracellular solution. Experiments were also performed with addition of the ZIPK inhibitor (HS-38, 50 μM). There are major differences in the sensitivity of RTA to contractile agonists. In this case, Ang II elicits a slower and weaker response than KCl. The addition of HS-38 decreased maximal force generated by either stimulus. […] Vessels were flash-frozen at the peak of contraction, and LC20 phosphorylation was assessed with PhosTag gels. […] C, data are n=1 for RTA vessels from Sprague-Dawley rats.
as §1, with “Intact” for “A, intact”, “gels (B).” for “gels.”, “Data” for “C, data”

[6] = biological target: PIM3 (Homo sapiens, UniProt Q86V86); test: 33P-ATP filter-binding kinase assay
[7] = biological target: PIM2 (Homo sapiens, UniProt Q9P1W9); test: 33P-ATP filter-binding kinase assay
[8] = biological target: DAPK1 (Homo sapiens, UniProt P53355); test: 33P-ATP filter-binding kinase assay; details: read-out: % Activity (10 μM HS38)
[9] = read-out: % Activity (10 μM HS38)

Chain of UniProt P11309 (P11309 whole entry): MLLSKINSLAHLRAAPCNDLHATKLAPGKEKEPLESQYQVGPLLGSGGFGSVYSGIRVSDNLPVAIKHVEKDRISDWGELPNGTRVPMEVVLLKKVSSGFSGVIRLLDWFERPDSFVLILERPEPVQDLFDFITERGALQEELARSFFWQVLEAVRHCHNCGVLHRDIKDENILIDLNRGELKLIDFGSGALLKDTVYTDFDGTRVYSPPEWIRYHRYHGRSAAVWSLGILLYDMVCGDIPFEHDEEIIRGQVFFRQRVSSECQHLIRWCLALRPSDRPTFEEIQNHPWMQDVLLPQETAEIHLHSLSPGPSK
Chain of UniProt Q9P1W9 (Q9P1W9 whole entry): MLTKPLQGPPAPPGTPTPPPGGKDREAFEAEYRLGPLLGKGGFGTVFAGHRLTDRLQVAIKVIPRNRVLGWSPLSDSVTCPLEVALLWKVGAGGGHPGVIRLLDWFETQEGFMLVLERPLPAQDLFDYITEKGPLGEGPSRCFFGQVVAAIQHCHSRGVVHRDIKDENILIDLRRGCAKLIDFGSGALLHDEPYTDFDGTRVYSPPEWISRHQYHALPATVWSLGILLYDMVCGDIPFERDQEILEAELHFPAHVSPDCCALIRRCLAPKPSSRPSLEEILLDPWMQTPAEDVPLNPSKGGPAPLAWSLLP
Chain of UniProt Q15746 (Q15746 whole entry): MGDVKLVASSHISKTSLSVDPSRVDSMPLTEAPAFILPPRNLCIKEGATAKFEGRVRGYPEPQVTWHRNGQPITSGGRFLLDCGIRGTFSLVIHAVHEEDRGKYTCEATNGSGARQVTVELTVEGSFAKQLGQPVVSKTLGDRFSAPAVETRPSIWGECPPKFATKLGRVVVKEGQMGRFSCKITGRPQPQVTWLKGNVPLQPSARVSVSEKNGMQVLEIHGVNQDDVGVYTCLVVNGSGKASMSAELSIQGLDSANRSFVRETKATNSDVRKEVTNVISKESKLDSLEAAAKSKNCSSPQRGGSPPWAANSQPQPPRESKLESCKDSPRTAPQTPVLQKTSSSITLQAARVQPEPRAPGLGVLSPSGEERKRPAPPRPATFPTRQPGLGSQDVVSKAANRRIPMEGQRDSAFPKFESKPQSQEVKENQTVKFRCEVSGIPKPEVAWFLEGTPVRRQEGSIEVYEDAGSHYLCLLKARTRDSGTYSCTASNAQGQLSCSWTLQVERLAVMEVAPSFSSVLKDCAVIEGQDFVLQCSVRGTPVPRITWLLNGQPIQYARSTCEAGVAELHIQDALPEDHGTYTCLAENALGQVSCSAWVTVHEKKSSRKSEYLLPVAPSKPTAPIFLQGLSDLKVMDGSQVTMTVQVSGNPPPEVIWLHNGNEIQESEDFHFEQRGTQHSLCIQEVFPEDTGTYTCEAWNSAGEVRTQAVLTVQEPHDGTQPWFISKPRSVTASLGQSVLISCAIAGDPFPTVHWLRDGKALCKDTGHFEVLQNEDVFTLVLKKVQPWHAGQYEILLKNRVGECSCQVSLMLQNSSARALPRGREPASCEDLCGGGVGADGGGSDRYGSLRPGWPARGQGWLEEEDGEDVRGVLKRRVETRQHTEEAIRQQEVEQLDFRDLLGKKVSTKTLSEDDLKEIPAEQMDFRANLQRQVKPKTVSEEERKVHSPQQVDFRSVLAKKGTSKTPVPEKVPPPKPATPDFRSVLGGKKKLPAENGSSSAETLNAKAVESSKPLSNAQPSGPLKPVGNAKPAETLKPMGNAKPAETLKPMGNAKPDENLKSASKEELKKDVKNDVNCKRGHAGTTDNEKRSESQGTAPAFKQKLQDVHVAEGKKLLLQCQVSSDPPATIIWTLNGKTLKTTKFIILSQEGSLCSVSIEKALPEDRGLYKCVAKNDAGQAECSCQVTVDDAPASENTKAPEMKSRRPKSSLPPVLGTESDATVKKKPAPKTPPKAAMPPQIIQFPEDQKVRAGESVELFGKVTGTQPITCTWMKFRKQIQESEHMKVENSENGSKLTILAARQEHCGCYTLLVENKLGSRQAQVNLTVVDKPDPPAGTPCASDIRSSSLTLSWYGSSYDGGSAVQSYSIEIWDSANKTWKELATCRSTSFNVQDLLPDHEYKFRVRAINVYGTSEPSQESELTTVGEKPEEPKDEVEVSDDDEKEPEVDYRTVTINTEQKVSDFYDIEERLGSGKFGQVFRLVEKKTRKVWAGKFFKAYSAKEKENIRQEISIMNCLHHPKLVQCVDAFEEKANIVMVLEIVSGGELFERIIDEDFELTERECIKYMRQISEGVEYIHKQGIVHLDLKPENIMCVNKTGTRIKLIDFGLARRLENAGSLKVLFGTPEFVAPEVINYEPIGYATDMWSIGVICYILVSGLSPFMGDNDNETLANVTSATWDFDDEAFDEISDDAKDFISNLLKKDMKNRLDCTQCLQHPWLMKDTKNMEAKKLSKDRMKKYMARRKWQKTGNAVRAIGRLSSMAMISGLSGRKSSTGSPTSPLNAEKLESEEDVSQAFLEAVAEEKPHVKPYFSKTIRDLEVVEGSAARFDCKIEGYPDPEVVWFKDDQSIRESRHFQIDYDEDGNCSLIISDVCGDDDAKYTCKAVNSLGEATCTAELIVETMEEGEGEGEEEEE
Chain of UniProt P53355 (P53355 whole entry): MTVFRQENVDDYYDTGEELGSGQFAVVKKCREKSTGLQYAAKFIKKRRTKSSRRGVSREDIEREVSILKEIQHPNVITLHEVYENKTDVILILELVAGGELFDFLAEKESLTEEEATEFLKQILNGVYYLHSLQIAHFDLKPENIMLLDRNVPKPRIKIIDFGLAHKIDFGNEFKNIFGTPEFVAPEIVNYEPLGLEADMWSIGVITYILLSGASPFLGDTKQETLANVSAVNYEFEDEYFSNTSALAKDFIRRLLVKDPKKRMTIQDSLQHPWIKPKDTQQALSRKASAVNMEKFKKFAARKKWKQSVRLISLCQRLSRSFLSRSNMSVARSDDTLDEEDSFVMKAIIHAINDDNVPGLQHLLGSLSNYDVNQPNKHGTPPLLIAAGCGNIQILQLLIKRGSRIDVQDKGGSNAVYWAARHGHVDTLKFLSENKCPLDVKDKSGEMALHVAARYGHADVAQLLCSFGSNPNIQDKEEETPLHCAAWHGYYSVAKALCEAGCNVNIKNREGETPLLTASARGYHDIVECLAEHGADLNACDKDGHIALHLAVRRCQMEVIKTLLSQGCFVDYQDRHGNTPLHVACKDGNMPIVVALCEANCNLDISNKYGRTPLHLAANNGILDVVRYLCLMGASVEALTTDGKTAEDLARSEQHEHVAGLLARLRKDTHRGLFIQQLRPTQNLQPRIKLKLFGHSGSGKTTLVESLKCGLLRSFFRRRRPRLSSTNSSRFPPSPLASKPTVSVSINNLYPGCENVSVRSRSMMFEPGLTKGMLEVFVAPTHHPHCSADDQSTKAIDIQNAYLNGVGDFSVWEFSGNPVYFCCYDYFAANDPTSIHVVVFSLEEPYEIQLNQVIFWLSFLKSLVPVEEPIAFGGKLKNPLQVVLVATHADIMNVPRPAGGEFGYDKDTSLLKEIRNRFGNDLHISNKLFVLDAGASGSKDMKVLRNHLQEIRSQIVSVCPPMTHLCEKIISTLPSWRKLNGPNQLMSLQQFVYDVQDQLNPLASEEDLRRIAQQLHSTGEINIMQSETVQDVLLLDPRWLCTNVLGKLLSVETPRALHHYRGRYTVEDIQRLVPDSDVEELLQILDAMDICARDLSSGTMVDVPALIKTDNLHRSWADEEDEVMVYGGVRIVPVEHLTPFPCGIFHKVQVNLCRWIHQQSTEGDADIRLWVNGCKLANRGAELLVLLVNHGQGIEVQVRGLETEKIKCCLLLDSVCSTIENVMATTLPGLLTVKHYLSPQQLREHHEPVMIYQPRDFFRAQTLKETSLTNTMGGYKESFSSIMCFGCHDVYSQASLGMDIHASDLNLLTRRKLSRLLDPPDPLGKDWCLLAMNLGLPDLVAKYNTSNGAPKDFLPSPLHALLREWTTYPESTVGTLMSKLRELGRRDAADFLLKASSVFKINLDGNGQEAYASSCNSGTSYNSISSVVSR

With `CC(Sc1nc2c(cnn2-c2cccc(Cl)c2)c(=O)[nH]1)C(N)=O` (stereo not drawn) [HS38] as the compound, how does the IC50 ([1]; mean ± S.D., n = 2) read?
Its IC50 is 1.7 ± 0.1 µM.

What about the activity at 10 µM [1, 9] of the same compound?
Its activity at 10 µM is 23%.

What about the “phosphorylation levels of LC20, Par-4 and MYPT1 (Thr-697, Thr-855)” value [2] of the same compound?
The value was “unaltered”.

What about the “lag time to the onset of force” value ([3]; MC-LR 10 μM, p <0.05, n=3) of the same compound?
Its value is “increased”.

And the “kinetics of force development” value ([3]; pCa=9.0, MC-LR 10 μM, HS38 50 μM)?
Its value is “markedly decreased”.

And the IC50 ([4]; mean ± S.D., n = 2)?
The IC50 was 19 ± 3 µM.

And the activity at 10 µM [4, 9]?
The activity at 10 µM was 71%.

And the “Ang II-dependent contraction” value ([5]; Ang II 10 μM)?
Its value is “completely inhibited”.

And the “KCl stimulated contraction, tonic versus phasic” value [5]?
Its value is “greater effect on the sustained, tonic contraction”.

And the “maximal force generated by KCl or Ang II” value [5]?
The value was “decreased”.

What about the IC50 ([6]; mean ± S.D., n = 2) of the same compound?
The IC50 was 0.2 ± 0.06 µM.

What about the activity at 10 µM [6, 9] of the same compound?
Its activity at 10 µM is 24%.

And the IC50 ([7]; mean ± S.D., n = 2)?
The IC50 was 18 ± 8 µM.

What about the activity at 10 µM [7, 9] of the same compound?
Its activity at 10 µM is 64%.

What about the activity at 10 µM [8] of the same compound?
Its activity at 10 µM is 11%.
